# Data from PubChem BioAssay AID488969 (Vanderbilt High Throughput Screening Facility, 2010).
# Over roughly 110,000 compounds, “z-score” has its median near -0.1; the highest 2% begin near 2. The list shows a part of the results.
# Target: Metabotropic glutamate receptor 8 (Rattus norvegicus) (UniProt P70579)
# Experiment: mGluR8 Gi/Go-coupled signaling modulation – cell-based, rat, thallium flux, HTS, primary screen (AID 488969)
# Conditions: HEK293 rat mGluR8, GIRK (G protein-gated inwardly rectifying potassium channel) thallium flux, FluoZin2; at 10 µM; stronger effect = higher value; submaximal glutamate (EC20) added with thallium
# Sequence of UniProt P70579 (P70579 whole entry, looked up): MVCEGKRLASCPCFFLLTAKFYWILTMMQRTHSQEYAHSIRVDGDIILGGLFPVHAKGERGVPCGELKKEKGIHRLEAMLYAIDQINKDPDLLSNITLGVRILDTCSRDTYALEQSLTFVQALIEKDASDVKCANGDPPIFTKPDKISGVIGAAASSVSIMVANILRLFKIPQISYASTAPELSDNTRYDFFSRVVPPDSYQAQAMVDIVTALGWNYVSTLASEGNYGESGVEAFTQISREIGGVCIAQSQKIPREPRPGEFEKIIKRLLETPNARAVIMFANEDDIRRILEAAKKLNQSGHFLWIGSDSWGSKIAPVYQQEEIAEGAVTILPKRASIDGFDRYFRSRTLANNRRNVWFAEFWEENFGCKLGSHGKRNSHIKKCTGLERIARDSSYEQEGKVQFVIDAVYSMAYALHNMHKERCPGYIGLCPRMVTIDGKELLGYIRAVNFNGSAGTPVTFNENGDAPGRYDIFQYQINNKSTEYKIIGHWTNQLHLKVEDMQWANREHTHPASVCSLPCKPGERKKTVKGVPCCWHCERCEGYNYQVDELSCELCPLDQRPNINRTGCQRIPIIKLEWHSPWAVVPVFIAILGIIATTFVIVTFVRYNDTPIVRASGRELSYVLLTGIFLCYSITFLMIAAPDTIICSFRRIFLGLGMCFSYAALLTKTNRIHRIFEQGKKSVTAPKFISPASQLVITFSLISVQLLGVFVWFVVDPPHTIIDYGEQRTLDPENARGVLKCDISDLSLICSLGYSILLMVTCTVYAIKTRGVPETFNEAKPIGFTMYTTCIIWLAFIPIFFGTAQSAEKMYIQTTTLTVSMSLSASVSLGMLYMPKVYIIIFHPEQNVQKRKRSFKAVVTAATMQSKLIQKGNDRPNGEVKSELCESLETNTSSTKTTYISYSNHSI
row,Compound,z-score
1,COc1ccc(C2=C(O)C(C)N(c3ccccc3)C2=N)cc1OC (centres undefined),-0.394
2,Cc1ccc(Cl)cc1Nc1nc(-c2sc(NC(=O)C(C)(C)C)nc2C)cs1,-0.0396
3,Cc1ccc(C(c2sc3nc(C)nn3c2O)N2CCN(C(=O)c3ccco3)CC2)cc1 (centres undefined),-0.0257
4,O=P(OC1CCCCC1)(OC1CCCCC1)C(O)c1c(Cl)cccc1Cl (centres undefined),-0.591
5,Cc1cc(N2CCC3(CC2)OCCO3)n2nc(C)c(-c3ccc(Cl)cc3)c2n1,0.0151
6,Cc1ccc(C2=NNC(C(O)C(O)C(O)CO)S2)cc1 (centres undefined),0.54
7,CC(=O)c1cc(-c2ccccc2)n(CCC(=O)NC2CCCCCC2)c1C,-0.728
8,CCC(c1nnnn1Cc1ccco1)N(Cc1cc2cc(OC)ccc2[nH]c1=O)C1CCCCC1 (centres undefined),-0.547
9,COc1cc2ncnc(NCc3ccccc3)c2cc1OC,-0.102
10,O=C(CNC(=O)c1cccc(F)c1)N/N=C/c1cccc([N+](=O)[O-])c1,-0.00152
11,Cc1c(NC(=O)CSc2ccc(Cl)cc2)cccc1-c1nc2cc(Cl)ccc2o1,-0.136
12,O=C(N/N=C/c1ccc(O)c(O)c1)C1c2ccccc2Oc2ccccc21,-0.183
13,O=C(c1ccco1)N1CCN(c2ncnc3scc(-c4ccc(F)cc4)c23)CC1,0.162
14,COc1ccc(S(=O)(=O)N(C)CC(=O)Nc2ccccc2OC)cc1,-0.484
15,COc1cc(NC(=O)c2nccnc2C(=O)O)cc(OC)c1,-0.269
16,CCOC(=O)C(=O)NNc1cccc(C)c1C,0.602
17,CCCn1c(SCC(=O)c2cc(C)c(C)cc2C)n[nH]c1=O,-0.844
18,Nc1c(NCc2ccccc2)c2ccccc2oc1=O,-0.459
19,Cc1ccc([N+](=O)[O-])c(OCCN2CCCCCC2)c1,-0.0506
20,Cc1cc(OCC(=O)NCC(C)C)cc(C)c1Br,-0.137
21,O=C1CCCc2ccccc2N1Cc1ccc(Cl)cc1Cl,-0.185
22,N#Cc1nc(COc2ccc(F)cc2)oc1NCCN1CCOCC1,0.0242
23,CCOc1ccccc1NC(=O)c1cccc(NC(=O)CC(c2ccccc2)c2ccccc2)c1,-0.177

row,Compound,z-score
1,CCc1ccc(NC(=O)CS(=O)CC(=O)NCC2OCCc3ccccc32)cc1 (centres undefined),0.192
2,C=CC1=C(C(=O)O)N2C(=O)C(NC(=O)Cc3ccccc3)C2SC1 (centres undefined),-0.434
3,O=c1[nH]c2cc(Br)cnc2nc1/C=C(\O)c1ccc(F)cc1,-0.28
4,CC1=C(C#N)C(c2ccc3ncccc3c2)C(C#N)=C(C)N1,-0.547
5,Cc1sc2ncnc(N=Nc3c(O)[nH]c4ccccc34)c2c1C,-0.0288
6,CCN(CC(=O)Nc1ccc(S(N)(=O)=O)cc1)S(=O)(=O)c1cc(C)ccc1OC,-0.393
7,Cc1ccc2ncccc2c1[N+](=O)[O-],-0.242
8,CC(=O)N1CCN2C(=O)C1CCCC(=O)c1cc(C)ccc12 (centres undefined),-0.767
9,O=C(CCn1c(=O)c2ccccc2n(CC(=O)NC2CCCC2)c1=O)NCc1ccco1,-0.258
10,CCN(CC)S(=O)(=O)c1cc(C(=O)N2CCc3ccccc32)ccc1Cl,-1.5
11,O=C1C=C(NCCNc2c(F)c(F)c(CO)c(F)c2F)CCC1,-0.00916
12,CCOC(=O)C1CCCN(S(=O)(=O)c2ccc(Br)c(OC)c2)C1 (centres undefined),-0.679
13,CCN1CCN(C(=O)Nc2cccc3ccccc23)CC1,-0.222
14,CN1CC(=O)N(CC(=O)NCc2ccc(F)cc2)c2ccccc2C1=O,0.93
15,O=C(CCn1cnc2ccccc2c1=O)Nc1ccc2c(c1)OCCO2,0.337
16,Fc1ccc(Nc2c(-c3ccco3)nc3ccccn23)cc1,-0.36
17,N#CCCn1nc(-c2ccc(Br)cc2)cc1Nc1ccccc1NC(=O)C(F)(F)F,0.396
18,Cc1ccc(NC(=O)C(=O)NCCN2CCN(C(=O)C(c3ccccc3)c3ccccc3)CC2)cc1,-0.0698
19,CCOc1ccccc1N/C=C/C(=O)C(C)(C)C,-0.207
20,Cc1cc(NCCCN2CCOCC2)n2ncc(-c3ccccc3)c2n1,1.02
21,Cc1[nH]n2c(=O)c3c(nc2c1-c1ccccc1)CCC3,-1.66
22,Cc1ccc(C(=O)NCCOC23CC4CC(CC(C4)C2)C3)cc1,-0.413
23,COc1ccc(/C=C2\SC(=S)N(NC(=O)c3csc4c3CCCC4)C2=O)cc1,-0.115

row,Compound,z-score
1,O=C(CSc1nc(-c2ccccc2)cc(C(F)(F)F)n1)NCCN1CCOCC1,2.92
2,O=C(OCN1C(=O)c2ccccc2C1=O)c1ccc2c(=O)n3c(nc2c1)CCC3,0.129
3,Cc1ccc(NC(=O)Cn2cnc3sc(C(=O)NCc4ccco4)c(C)c3c2=O)cc1Cl,-0.0832
4,O=C(CN1CCOCC1)NN=C1CCCCCCCCCCC1,-0.123
5,CCc1cccc(NC(=O)CS(=O)Cc2nc(-c3ccc(C)cc3)oc2C)c1 (centres undefined),-0.236
6,O=S(=O)(Nc1ccc(-c2nc3cccnc3s2)cc1)c1ccc(Cl)s1,0.175
7,Cn1c(SCC(=O)NC2CCCC2)nnc1-c1ccc(S(=O)(=O)N2CCOCC2)cc1,-0.122
8,O=C(c1ccccc1)c1cn[nH]c1-c1ccccc1O,-0.0732
9,Cc1ccc2[nH]c3c(c2c1)CC/C(=C/c1ccccc1)C3=O,0.221
10,Cc1cccn2cc(CCNS(=O)(=O)c3ccc4c(c3)OCCO4)nc12,-0.235
11,Cc1ccc(NC(=O)c2ccc3c(c2)OCCO3)cc1S(=O)(=O)Nc1cccc(Cl)c1,0.619
12,COC(=O)N/N=C/c1ccc(OCCSc2ccc(Cl)cc2)c(OC)c1,0.427
13,CC(=O)Nc1ccc(S(=O)(=O)NC2(C(F)(F)F)C(=O)Nc3c2c(=O)n(C)c(=O)n3C)cc1 (centres undefined),-0.194
14,CCOC(=O)c1cnc(SCC(=O)Nc2cccc(OC)c2)nc1N,0.649
15,O=S(c1ccc2ccccc2c1)c1cnns1 (centres undefined),0.0599
16,Cc1onc(-c2ccccc2Cl)c1C(=O)NC(=S)Nc1ccccc1C(N)=O,-0.0945
17,Cc1ccc(S(=O)(=O)N2CCN(Cc3nc4sc(C)c(C)c4c(=O)[nH]3)CC2)cc1,-0.106
18,Cc1ccc(N=C2C(=S)N(c3ccc(C)cc3)C(=N)N2/N=C/c2ccc(Cl)cc2)cc1,0.425
19,O=C(Nc1cccc(NC(=O)c2ccc(-c3ccc(Br)cc3)o2)c1)c1ccccc1,-0.145
20,C=CCNC(=O)/C(=C\c1cccc([N+](=O)[O-])c1)NC(=O)c1ccccc1,-0.15
21,Oc1cc(NCc2cccnc2)ccc1-c1nc2ccccc2o1,0.423
22,C=CCSc1nnc(NC(=O)c2cccc(S(=O)(=O)N3CCOCC3)c2)s1,-0.231
23,O=C(c1cccc2ccccc12)N1CCN(c2ccc([N+](=O)[O-])c(N3CCOCC3)c2)CC1,-0.806
